Experimental data reported in PMC7819943, “Rice protein-binding microarrays: a tool to detect cis-acting elements near promoter regions in rice”.
This is one part of the list.

Molecular target: T1, OsWOX13 (Oryza sativa, UniProt Q5QMM3 1-267)
T1 sequence: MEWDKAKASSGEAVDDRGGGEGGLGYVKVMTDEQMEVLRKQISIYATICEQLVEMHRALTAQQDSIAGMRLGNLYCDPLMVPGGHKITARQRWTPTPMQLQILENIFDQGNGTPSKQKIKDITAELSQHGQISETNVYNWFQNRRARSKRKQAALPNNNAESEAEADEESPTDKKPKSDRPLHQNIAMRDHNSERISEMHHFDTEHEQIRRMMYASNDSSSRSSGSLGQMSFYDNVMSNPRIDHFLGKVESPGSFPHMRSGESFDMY
Assay: protein-binding microarray (RPBM); PBS, 2% BSA, 51.3 ng/ul salmon testes DNA, 50 uM zinc acetate, 200 nM TF, 25 C, 1 h; high values mean tight binding
Settings: protein: recombinant; tags: N-terminal polyhistidine and DsRed monomer fusion (pET32a); label: CyDye5-dUTP incorporated in the synthesized complementary strand; 3' TTTTT single-stranded linker to array surface; dsDNA, one strand shown
How it was run: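 An Axon 4000B scanner gave the binding signal as per-feature fluorescence intensity in arbitrary units. This followed washing of a custom Agilent array that had been incubated for 1 h at 25 °C with 200 nM protein in PBS, 2% BSA, salmon testes DNA and 50 µM zinc acetate. The proteins were transcription factors fused at the N-terminus to polyhistidine and DsRed, expressed in E. coli BL21-CodonPlus and purified on Ni–NTA.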

Sequence | binding signal
CTAAAATAATTTAATAAATTGTTGCAAGAAAATCAATTGTCGGAGTCACCTAGTGCAG | 25800 fluorescence intensity (a.u.)
AGTTCAATCAGCTGCCGCAGTGGCCTGATATCAACCTCAGCGGAGTCACCTAGTGCAG | 3580 fluorescence intensity (a.u.)
ACCTAGAATGTGATTTGACCGATCCTAAAGATAACGAATCCGGAGTCACCTAGTGCAG | 7090 fluorescence intensity (a.u.)
ACGGTGTGGGGAGGTAAATTGATTCGCTGTGCTCGATTTTCGGAGTCACCTAGTGCAG | 4600 fluorescence intensity (a.u.)
AATAACAAAATAAATTATAGATTCTACCTGTAAACTGTGACGGAGTCACCTAGTGCAG | 11500 fluorescence intensity (a.u.)
AGAGAGATTGGGAAGCTCAAGTTAAACCAACAATGATGGCCGGAGTCACCTAGTGCAG | 6520 fluorescence intensity (a.u.)
CTATTCAATTTACGCCAATAGATGGGTAATGTGCTAGTGCCGGAGTCACCTAGTGCAG | 13800 fluorescence intensity (a.u.)
TTTAATTATTTTGATTATTTTATCATGACTTATCGGTTGTCGGAGTCACCTAGTGCAG | 37500 fluorescence intensity (a.u.)
GGTTTGACACAGATAACTATACTACTTATTCACATCTGAGCGGAGTCACCTAGTGCAG | 6920 fluorescence intensity (a.u.)
AGTTTGACGGAGAAATTTTGAATCTAAACACCGCCAGTGTCGGAGTCACCTAGTGCAG | 5720 fluorescence intensity (a.u.)
CTTTATTAATCTACAAACATAATTACATCGTTCACTAGAACGGAGTCACCTAGTGCAG | 3600 fluorescence intensity (a.u.)
CCGGATTTCAGTTATTTCCTAATTGCATTTCTATATGGACCGGAGTCACCTAGTGCAG | 9320 fluorescence intensity (a.u.)
TGACAATCATAGACCTGTAACAAACTCAACTCAACGGTCACGGAGTCACCTAGTGCAG | 4680 fluorescence intensity (a.u.)
ATTAATTAAATTTTGCATAGTACCGGTACTGTGTTGGATACGGAGTCACCTAGTGCAG | 39600 fluorescence intensity (a.u.)
CCTCACAAAGGGCATTAATAAATTGATATCATTATTTATGCGGAGTCACCTAGTGCAG | 6080 fluorescence intensity (a.u.)
GTGGGTTACTCACTAATTGATGTGGTTATGGTTCACCAACCGGAGTCACCTAGTGCAG | 23000 fluorescence intensity (a.u.)
TGTAATTATAGTATAATCGTAGTAATAATTACACTGTAACCGGAGTCACCTAGTGCAG | 22000 fluorescence intensity (a.u.)
CCGTTGGATTGGATTCTTGAGCAATCTGGACGGAGATCCTCGGAGTCACCTAGTGCAG | 4570 fluorescence intensity (a.u.)
GCATTATTAATTGATGTTGTGATATTTATATGAATACATACGGAGTCACCTAGTGCAG | 25200 fluorescence intensity (a.u.)
ATGTGATGGAAAAGTTAGAAATTTATGTGTGTAGGAAAATCGGAGTCACCTAGTGCAG | 3640 fluorescence intensity (a.u.)
TGTGATTGGCACGTGGGTCCAACTAATACGTAGGCACTATCGGAGTCACCTAGTGCAG | 39100 fluorescence intensity (a.u.)

Sequence | binding signal
GCTTAACACAACACTTTGATTGATGAGGTTTAATTAAGAGCGGAGTCACCTAGTGCAG | 44200 fluorescence intensity (a.u.)
AGTTAAATTTGAAAGAGTTTGACTTTAACCAAAGTCAAAACGGAGTCACCTAGTGCAG | 3300 fluorescence intensity (a.u.)
GGTATAACCTAAAGTTTATCCGTTTGTAGAGCGAATGTTTCGGAGTCACCTAGTGCAG | 14400 fluorescence intensity (a.u.)
TGTTTAAATTCATTAACATCTAAATGAATATAGGCAATGCCGGAGTCACCTAGTGCAG | 4620 fluorescence intensity (a.u.)
GGGGATGGAAGGGTGATTGAGAGTAAGAATTGGAGGTGATCGGAGTCACCTAGTGCAG | 30000 fluorescence intensity (a.u.)
TGTAAATTTGGATCAATGACATATAAGGAAAGAGCCAATTCGGAGTCACCTAGTGCAG | 8200 fluorescence intensity (a.u.)
TTAATTTATTTAAATATATAGGCAAGATAATAACAGCTGCCGGAGTCACCTAGTGCAG | 12500 fluorescence intensity (a.u.)
TTCATAATTTAACATCTATCTACTTAGATTTATAGTATTACGGAGTCACCTAGTGCAG | 13200 fluorescence intensity (a.u.)
CACCCATTGAATTGAAAGATGGGAAAGGGACAGAACTGATCGGAGTCACCTAGTGCAG | 3260 fluorescence intensity (a.u.)
AGAGGAAAGCTGATTGACAATTATGATTTGTGTACGAAGTCGGAGTCACCTAGTGCAG | 39200 fluorescence intensity (a.u.)
GCTGATTAATTTCACTCCATGTACTACTGCCGATTTGTTCCGGAGTCACCTAGTGCAG | 5750 fluorescence intensity (a.u.)
CTGTAATTGCAATTTCTTGCCCAATGTTCAGAATATGTACCGGAGTCACCTAGTGCAG | 49400 fluorescence intensity (a.u.)
AACAAATTAATTTTCACAATCATCATGCCGACTTGAATGTCGGAGTCACCTAGTGCAG | 26900 fluorescence intensity (a.u.)
CACAAACATACATATTTAAATTTAACTTATAAAAGTAGAACGGAGTCACCTAGTGCAG | 4220 fluorescence intensity (a.u.)
TTTATTCAATCATCACTGCAATAAGTTACTTTCTCTATCCCGGAGTCACCTAGTGCAG | 17000 fluorescence intensity (a.u.)
GCCATCCAATCAGTACAGTTGCGTCAAGCATTCAACTTCTCGGAGTCACCTAGTGCAG | 5100 fluorescence intensity (a.u.)
ATTAGGTGTTTCCAGTTAATTAAAGTCATGTAGTACGGATCGGAGTCACCTAGTGCAG | 3680 fluorescence intensity (a.u.)
AAATAACGAGCAGACATAATTAGACATACTTGCCCCACCGCGGAGTCACCTAGTGCAG | 11200 fluorescence intensity (a.u.)
TCTTACCAAATTTTGACAGGATTTCTTATATATCTACCAACGGAGTCACCTAGTGCAG | 6330 fluorescence intensity (a.u.)
TTGGAATTGGAATTATATATGACATATGGATGTATGAAACCGGAGTCACCTAGTGCAG | 9130 fluorescence intensity (a.u.)
AGTGTTGATTTAATGTTAAATATTATAGTTAACACTTAAGCGGAGTCACCTAGTGCAG | 28200 fluorescence intensity (a.u.)
